From patent US20200131274A1 (CRESCENDO BIOLOGICS, published 2020)
Where “and” joins values, the source holds several entries; their conditions need not be identical. Equal values may be shown once. Values belong to the binder of their own block, whether it stands above or below them.

Tests used:
[1] = biological target: T1, human prostate specific membrane antigen (PSMA), full-length, on cells (human, UniProt Q04609); assay: cell-based or functional assay
[2] = biological target: T1, human prostate specific membrane …; assay: cell-based or functional assay; remark: listed apart in the source
[3] = biological target: T2, cynomolgus PSMA, full-length, on CHO cells (cynomolgus, UniProt A0A2K5VNZ0 1-750); assay: cell-based or functional assay
[4] = biological target: T1, human prostate specific membrane …; assay: FMAT direct cell binding, LNCap cells
[5] = biological target: T1, human prostate specific membrane …; assay: FMAT direct cell binding, DU145 PSMA cells
[6] = biological target: T2, cynomolgus PSMA, full-length, on CHO …; assay: FMAT direct cell binding, CHO cyno PSMA cells
[7] = biological target: T1, human prostate specific membrane …; assay: FMAT direct cell binding, CHO human PSMA cells
[8] = biological target: T3, recombinant human PSMA (R&D, cat. no. 4234-ZN) (human, UniProt Q04609); assay: Octet RED384 BLI, PSMA on sensor, VH series from 0.375 ug/ml
T3 construct: Bought protein; also called rhPSMA; Recombinant PMSA

[9] = biological target: T3, recombinant human PSMA (R&D, cat. no. …); assay: Octet RED384 BLI, PSMA on sensor, Table 21 b
[10] = biological target: T3, recombinant human PSMA (R&D, cat. no. …); assay: Octet RED384 BLI, PSMA on sensor, Table 21 c
[11] = biological target: T1, human prostate specific membrane …; assay: FMAT cell binding, huPSMA CHO 1A10 cells, after 1 day in human serum at 37 C
[12] = biological target: T1, human prostate specific membrane …; assay: FMAT cell binding, huPSMA CHO 1A10 cells, after 0 days in human serum at 37 C
[13] = biological target: T1, human prostate specific membrane …; assay: FMAT cell binding, huPSMA CHO 1A10 cells, after 4 days in human serum at 37 C
[14] = biological target: T1, human prostate specific membrane …; assay: FMAT cell binding, huPSMA CHO 1A10 cells, after 7 days in human serum at 37 C
[15] = biological target: T1, human prostate specific membrane …; assay: FMAT direct cell binding, human PSMA-CHO cells
[16] = biological target: T1, human prostate specific membrane …; assay: FMAT cell binding, huPSMA CHO cells, after 1 day in human serum at 37 C
[17] = biological target: T1, human prostate specific membrane …; assay: FMAT cell binding, huPSMA CHO cells, after 0 days in human serum at 37 C
[18] = biological target: T1, human prostate specific membrane …; assay: FMAT cell binding, huPSMA CHO cells, after 4 days in human serum at 37 C
[19] = biological target: T1, human prostate specific membrane …; assay: FMAT cell binding, huPSMA CHO cells, after 7 days in human serum at 37 C

B4: 1.17-6GS-2.1 (bispecific antibody)
chain: EVQLLESGGGLVQPGGSLRLSCAASGFSFSSYALSWVRQAPGKGLEWVSSIGENNDTTDYAD[… about 20 residues …]MNSLRVEDTAVYYCVKDGVHWGQGTLVTVSSGGGGSGGGGSGGGGSGGGGSGGGGSGGGGSEVQLVESGGGVVQPGRSLRLSCAASGFSFSGYGMHWVRQAPGKGLEWVAYISYDGSNKYYADSVKGRFTISRDNSKNTLYLQMNSLRAEDTAVYYCAKDPAWGLRLGESSSYDFDIWGQGTMVTVSS
notes: linker (G4S)6; also called 1.17-2.1
His-ZAP cell killing, human PSMA Average EC50 [2]: 0.013 nM
His-ZAP cell killing, cyno PSMA Average EC50 [3]: 0.015 nM
EC50 [15]: 0.325 nM
EC50 [16]: 0.0477 nM
EC50 [17]: 0.0569 nM
EC50 [18]: 0.0458 nM
EC50 [19]: 0.0544 nM

B5: 1.17-6GS-2.15 (bispecific antibody)
chain: EVQLLESGGGLVQPGGSLRLSCAASGFSFSSYALSWVRQAPGKGLEWVSSIGENNDTTDYAD[… about 20 residues …]MNSLRVEDTAVYYCVKDGVHWGQGTLVTVSSGGGGSGGGGSGGGGSGGGGSGGGGSGGGGSEVQLVESGGGVVQPGRSLRLSCAASGFSFSGYGLHWVRQAPGKGLEWVAYISYDKSNKYYADKVKGRFTISRDNSKNTLYLQMNSLRAEDTAVYYCAKDPAWGLRLGESSSYDFDIWGQGTMVTVSS
His-ZAP cell killing, cyno PSMA Average EC50 [3]: 0.012 nM

B6: 1.17-6GS-2.17 (bispecific antibody)
chain: EVQLLESGGGLVQPGGSLRLSCAASGFSFSSYALSWVRQAPGKGLEWVSSIGENNDTTDYAD[… about 20 residues …]MNSLRVEDTAVYYCVKDGVHWGQGTLVTVSSGGGGSGGGGSGGGGSGGGGSGGGGSGGGGSEVQLVESGGGVVQPGRSLRLSCAASGFSFSGYGMHWVRQAPGKGLEWVAYISYDASNKYYADNVKGRFTISRDNSKNTLYLQMNSLRAEDTAVYYCAKDPAWGLRLGESSSYDFDIWGQGTMVTVSS
notes: linker (G4S)6
His-ZAP cell killing, human PSMA Average EC50 [2]: 0.014 nM
His-ZAP cell killing, cyno PSMA Average EC50 [3]: 0.01 nM
EC50 [15]: 0.192 nM
EC50 [16]: 0.0332 nM
EC50 [17]: 0.0674 nM
EC50 [18]: 0.0473 nM
EC50 [19]: 0.057 nM

B7: 1.17-6GS-2.22 (bispecific antibody)
chain: EVQLLESGGGLVQPGGSLRLSCAASGFSFSSYALSWVRQAPGKGLEWVSSIGENNDTTDYAD[… about 20 residues …]MNSLRVEDTAVYYCVKDGVHWGQGTLVTVSSGGGGSGGGGSGGGGSGGGGSGGGGSGGGGSEVQLVESGGGVVQPGRSLRLSCAASGFSFSGYGTHWVRQAPGKGLEWVAYISYDGSNKYYAAPVKGRFTISRDNSKNTLYLQMNSLRAEDTAVYYCAKDAAWGLRLGESSSYDFDIWGQGTMVTVSS
notes: linker (G4S)6; also called 1.17-2.22
His-ZAP cell killing, human PSMA Average EC50 [2]: 0.018 nM
His-ZAP cell killing, cyno PSMA Average EC50 [3]: 0.012 nM
EC50 [15]: 0.199 nM

Second part, led by results:

pHrodo Green internalization assay, human PSMA Average EC50 (M) [1]: 5.7e-10 M
EC50 [4]: 0.199 nM
EC50 [5]: 0.0415 nM
EC50 [6]: 0.11 nM
EC50 [7]: 0.0502 nM
Kd [8]: 0.55 nM
koff [8]: 0.000428 s⁻¹
B1: single VH domain antibody 1.12 (VHH)
VHH: EVQLLESGGGLVQPGGSLRLSCAASGFSFSSYALSWVRQAPGKGLEWVSSIGENNATTDYAD[… about 20 residues …]MNSLRVEDTAVYYCVKDGVHWGQGTLVTVSS
notes: Human single VH domain antibody (Humabody)
His-ZAP cell killing, human PSMA Average EC50 [2]: 0.018 nM
His-ZAP cell killing, cyno PSMA EC50 [3]: 0.97 nM

pHrodo Green internalization assay, human PSMA Average EC50 (M) [1]: 6.8e-10 M and 2.9e-10 M
EC50 [4]: 0.0585 nM
EC50 [5]: 0.031 nM
Kd [9]: 0.58 nM
koff [9]: 0.000392 s⁻¹
Kd [10]: 0.61 nM
koff [10]: 0.000551 s⁻¹
EC50 [6]: 0.0913 nM
EC50 [7]: 0.0334 nM
Kd [8]: 0.61 nM
koff [8]: 0.000551 s⁻¹
EC50 [11]: 0.253 nM and 0.16 nM
EC50 [12]: 0.273 nM and 0.16 nM
EC50 [13]: 0.259 nM and 0.18 nM
EC50 [14]: 0.274 nM and 0.15 nM
B2: single VH domain antibody 1.17 (VHH)
VHH: EVQLLESGGGLVQPGGSLRLSCAASGFSFSSYALSWVRQAPGKGLEWVSSIGENNDTTDYAD[… about 20 residues …]MNSLRVEDTAVYYCVKDGVHWGQGTLVTVSS
notes: as for B1
His-ZAP cell killing, human PSMA Average EC50 [2]: 0.015 nM and 0.026 nM
His-ZAP cell killing, cyno PSMA EC50 [3]: 0.56 nM

pHrodo Green internalization assay, human PSMA Average EC50 (M) [1]: 3.9e-10 M
Kd [9]: 0.49 nM
koff [9]: 0.000645 s⁻¹
Kd [10]: 0.49 nM
koff [10]: 0.000645 s⁻¹
EC50 [11]: 0.11 nM
EC50 [12]: 0.13 nM
EC50 [13]: 0.12 nM
EC50 [14]: 0.11 nM
B3: single VH domain antibody 1.27 (VHH)
VHH: EVQLLESGGGLVQPGGSLRLSCAASGFSFSSYALSWVRQAPGKGLEWVSSIGENDGTTDYAD[… about 20 residues …]MNSLRVEDTAVYYCVKDGVHWGQGTLVTVSS
notes: Human single VH domain antibody (Humabody); also called VH 1.27
His-ZAP cell killing, human PSMA Average EC50 [2]: 0.052 nM
